# Reference: the supplement of paper PMC3334620
# In all, about 33,000 sequences were measured (“E-score (-0.5 to 0.5)”: median about -0.054, highest 2% from about 0.35 on). The list shows a part of the results.
# Target: T1, Stb5 (UniProt P38699)
# T1 sequence: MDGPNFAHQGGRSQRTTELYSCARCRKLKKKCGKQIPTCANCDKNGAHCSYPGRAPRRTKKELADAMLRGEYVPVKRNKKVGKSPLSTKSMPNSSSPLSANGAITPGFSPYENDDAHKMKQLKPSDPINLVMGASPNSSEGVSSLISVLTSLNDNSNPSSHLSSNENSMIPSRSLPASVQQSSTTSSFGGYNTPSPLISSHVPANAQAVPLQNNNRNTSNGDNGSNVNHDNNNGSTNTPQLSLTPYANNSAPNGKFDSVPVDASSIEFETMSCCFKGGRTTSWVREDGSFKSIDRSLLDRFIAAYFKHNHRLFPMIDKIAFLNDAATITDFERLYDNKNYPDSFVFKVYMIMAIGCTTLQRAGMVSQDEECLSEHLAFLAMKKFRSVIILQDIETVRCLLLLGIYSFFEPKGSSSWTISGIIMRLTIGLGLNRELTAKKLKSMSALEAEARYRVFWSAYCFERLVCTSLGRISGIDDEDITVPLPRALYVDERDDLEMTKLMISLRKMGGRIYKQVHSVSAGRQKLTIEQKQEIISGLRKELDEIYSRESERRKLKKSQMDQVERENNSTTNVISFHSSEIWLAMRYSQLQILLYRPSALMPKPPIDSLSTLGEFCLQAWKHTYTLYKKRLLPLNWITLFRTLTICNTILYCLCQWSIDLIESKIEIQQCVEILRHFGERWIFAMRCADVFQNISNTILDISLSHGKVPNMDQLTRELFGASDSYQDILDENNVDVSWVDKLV
# Experiment: PBM E-score (8-mer binding enrichment) (E-score (-0.5 to 0.5)); higher = stronger / more preferred TF binding; most listed sequences are background and not binding sites
# Conditions: protein concentration: 200 nM; construct: GST-full length
# Procedure: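 Universal 'all 10-mer' protein binding microarrays (Agilent AMADID 015681) probed with GST-tagged S. cerevisiae TFs (full-length or DBD) made by in vitro transcription/translation (PURExpress), about 100-200 nM. Bound TF was detected with fluorescent anti-GST. Each ungapped 8-mer (which stands for itself and its reverse complement) is scored by the PBM enrichment score (E-score), a modified Wilcoxon-Mann-Whitney statistic from -0.5 to +0.5, computed with the Universal PBM Analysis Suite. Scale: above 0.35 generally sequence-specific binding.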
row,Sequence,PBM E-score
1,CGTGCCAC,-0.0488
2,GCTTTCAA,-0.175
3,CAGTCCAC,-0.204
4,CCAGGTAG,-0.209
5,CTTCAAAG,-0.124
6,ATCAGGAT,-0.0766
7,GCTTATCC,0.019
8,CAATTCGA,-0.187
9,ATGTACAG,-0.179
10,CGACGTAG,-0.00852
11,ATCCGGAT,0.223
12,AGAGATGC,-0.137
13,ATGTCCAG,-0.117
14,AGAATTTC,-0.209
15,ATCCGGTA,0.159
16,ATTTGAAA,-0.0141
17,ACAACCCT,-0.328
18,ACCGTACG,0.091
19,GGATCGAC,0.0228
20,CCAAAGGA,-0.174
21,ACATCAAA,0.0275
22,CTTACCGC,0.193
23,AGACGCAG,-0.114
24,GGACCGCA,0.188
25,ACTCAACA,-0.134

row,Sequence,PBM E-score
1,CGTGAGGA,-0.106
2,CTACCAAC,-0.148
3,AGTTACCC,0.0748
4,GACGCTGC,-0.00518
5,GCCAATGA,-0.261
6,CAGTTTTA,0.0314
7,ACTAAAGA,-0.156
8,ACCCTAGA,-0.348
9,GTAGTTCA,-0.0618
10,CAAGGCAC,-0.179
11,CTGTGGAC,-0.228
12,CCCCGGGC,0.265
13,GTACCTGA,-0.0737
14,TATAAGCA,-0.0421
15,AAGCACTG,-0.188
16,AACTCCTA,0.0494
17,AGATATTG,-0.0198
18,GAGGACTC,-0.22
19,CCGTTTGC,0.233
20,AACCTGAT,-0.217
21,AATACTGT,-0.135
22,CACCGGCG,0.417
23,GGCAGAGA,-0.156
24,AATATAAG,0.0277
25,CCAGCTTA,-0.0556

row,Sequence,PBM E-score
1,TGACGCAA,-0.174
2,AACTGCAT,-0.354
3,CAATCCTC,-0.193
4,CGGCCATC,0.157
5,ACGAATCA,-0.0604
6,AATATGCT,0.00961
7,AGAAGTTG,-0.303
8,AGTGGGGG,-0.114
9,ATGGAGCC,-0.0717
10,TAATGTGA,-0.149
11,CTATATAA,0.103
12,CAGCCAAC,-0.287
13,CGGACCCA,0.381
14,AATATTCT,-0.0217
15,CAGAACTG,-0.218
16,AGCGGTAT,0.351
17,AACGTGAG,-0.116
18,AAGGCAGG,-0.0754
19,GGTTGAGA,0.0761
20,TAAAAAAA,0.00986
21,ACTGTACA,-0.292
22,CACGCCGC,0.293
23,CGCCGACA,0.354
24,AGCGTGTC,-0.145
25,ACTTCTAC,-0.279

row,Sequence,PBM E-score
1,TATCTGGA,-0.2
2,CGGTGTGC,0.219
3,ACGGCTTG,-0.0845
4,ATTCCTAG,-0.0861
5,ATTCAGGC,-0.0849
6,CCAACCCA,-0.196
7,ACGACCAT,-0.206
8,CCACGGTC,0.143
9,GGCGCTAC,0.285
10,AAAGGCGA,-0.14
11,CGGATCGA,0.145
12,ACACGGTG,0.299
13,GTGCATCA,-0.14
14,GGCAGCTA,-0.0896
15,AGAGCGTC,-0.203
16,AGGTCAAT,-0.16
17,AGGCAACA,-0.195
18,GGGCGGTA,0.346
19,AGGCGGAA,0.131
20,TCGCACAA,-0.197
21,ATACATTG,-0.0394
22,ATGTAGGC,0.0664
23,CGAATTAG,-0.0537
24,GCGGACTA,0.332
25,GGGTATAC,0.224

row,Sequence,PBM E-score
1,CACCTTCG,0.0477
2,TCGCTGAA,-0.205
3,CTACTTCA,-0.161
4,CGCACCAC,0.0134
5,ATAAGTGG,0.0366
6,AACGTGCG,0.00856
7,ACACCAAT,0.0231
8,CCTCCGGC,0.302
9,ACCAGGAT,-0.102
10,TCCTGACA,-0.374
11,CTATATGA,0.0326
12,CCTCTACG,-0.181
13,GCAGATCA,-0.107
14,CAAGTGCA,-0.299
15,AATTACAC,0.14
16,ATCGTATA,-0.0233
17,ATTATAGG,0.059
18,AAACCAAC,-0.186
19,ACTGACCA,-0.131
20,ATGGCGGC,0.248
21,AAACCTAT,-0.127
22,TAATCAAA,0.00464
23,GCAATTAC,0.139
24,CAATAAGG,-0.0479
25,ACTAGGGA,-0.154

row,Sequence,PBM E-score
1,ACTACCAT,-0.125
2,TAGTAATA,-0.146
3,AGATGGGC,-0.0693
4,AAGCTTAT,-0.0352
5,AAGAGACT,-0.192
6,CCATTCGG,0.143
7,AACAACAC,-0.238
8,CTCGGTAA,0.068
9,AGATATCT,-0.274
10,ACCGATAT,0.232
11,CGAAACCA,-0.0365
12,CATCAATA,-0.165
13,AACATTAC,-0.0746
14,ACAAACGC,0.15
15,CGAACCCG,0.103
16,CAATAGGA,-0.146
17,ACGCCGAA,0.264
18,ACCACTTA,-0.0547
19,GCAGGAGA,-0.0364
20,CAGGTCGG,0.274
21,CTTATTGA,-0.0347
22,GACCCAGC,-0.205
23,CTATCCGC,0.0573
24,ATACTACG,-0.0545
25,AGCGGGCG,0.261

row,Sequence,PBM E-score
1,CAGCCATC,-0.207
2,GCGTCTAC,-0.0877
3,ACCCGTAT,0.0512
4,AGATTCTA,-0.0584
5,AATTAAAC,0.0202
6,CACGAATA,-0.203
7,CAAAGTAC,-0.189
8,GCAAGGAA,-0.00519
9,AGGCTTAG,-0.193
10,ATCTTTAG,0.00097
11,CGATGACC,0.0547
12,CGTCCTGC,-0.00146
13,ACAGCGAT,0.15
14,AGTCGCGC,0.0306
15,TATACGCA,-0.0348
16,CCACTCGG,0.00217
17,CCGATGAC,0.301
18,ATTCCGCC,0.233
19,CAAACAGA,-0.149
20,CGGCTCCA,0.215
21,ACCAATTC,-0.0154
22,CATGTTGC,-0.0278
